Source: PubChem BioAssay AID686978 (National Center for Advancing Translational Sciences (NCATS), 2013)
In all, about 420,000 compounds went through this assay and about 64,000 (15%) were called active. This list was built around the results that the source calls inconclusive (neither active nor inactive); the mix of calls is not that of the screen. The call rests on the fitted dose curve; in most records, active means well fitted inhibition curve with a large enough effect; inconclusive means small, poorly fitted or top-dose-only effect; inactive means flat fitted curve, though single readings scatter. No potency is given beside an inconclusive call; the fits are too rough.
On the % scale 0 is the no-effect control and ±100 the full control effect; potency means the concentration at half of the fitted maximal effect; tags describe the fitted curve by direction and shape.

Experiment: qHTS for Inhibitors of human tyrosyl-DNA phosphodiesterase 1 (TDP1): qHTS in cells in absence of CPT; further: nearly all actives have a fitted effect of over 55% in size
Settings: DT40 Tdp1-/- hTDP1 cells, no CPT, ATP luminescence, 48 h; activity change, negative = growth inhibition: at 46.2 µM (top of the series)
How it was run: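 A cellular qHTS used chicken DT40 cells lacking endogenous Tdp1 but carrying stably transfected human TDP1. Compounds were applied without camptothecin, and cell growth kinetics were judged by ATP-dependent luminescence after ≥48 hr.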
For COC(=O)c1cc(-c2ccc(C)cc2)n[nH]1, the “activity change, negative = growth inhibition” value was inactive: -14%. With COc1ccc(-c2nc(S(=O)(=O)c3ccccc3)c(N3CCOCC3)o2)cc1 the “activity change, negative = growth inhibition” value was inactive: -19.2%. In the case of NC(=S)COc1ccccc1, the “activity change, negative = growth inhibition” value is reported as inactive: 0.252%. For O=C(NC1CCCCC1)c1cc(Nc2ccccc2)nc2ccccc12, the activity change, negative = growth inhibition was inconclusive: -31.4% [inhibitor]. In the case of COc1ccc(-c2c(C)nn3c(-c4ccccc4)cc(-c4ccccc4)nc23)cc1OC, the Potency is reported as inconclusive [inhibitor, partial curve, poor fit]. For COc1ccc(CCN2C(=O)c3[nH]nc(-c4ccccc4O)c3C2c2ccc(O)c(OC)c2)cc1 (stereo not given), the Potency was inconclusive [inhibitor, single point]. With CCOC(=O)CC(NC(=O)c1cc2c(=O)n3cccc(C)c3nc2s1)c1ccc(OCC(C)C)c(OC)c1 (stereo not given) the “activity change, negative = growth inhibition” value was inactive: -1.8%. For O=C(CNC(=O)Cc1ccccc1)N=Nc1c(O)[nH]c2ccccc12, the “activity change, negative = growth inhibition” value was inactive: -24.2%. In the case of NC(=O)C1CC(=O)N(c2ccc(OCc3ccc(Cl)c(Cl)c3)cc2)C1 (stereo not given), the Potency is reported as inconclusive [inhibitor, single point]. With CN(Cc1c(C(=O)N/N=C/c2ccccc2F)nnn1-c1nonc1N)c1ccccc1 the Potency was inconclusive [inhibitor, single point]. In the case of COc1ccc(-c2noc(CCC(=O)N3CCN(c4ccc(C(F)(F)F)cc4)CC3)n2)cc1, the Potency is reported as inconclusive [inhibitor, full curve, poor fit]. For CCCCCCC[n+]1ccc(/C=C/c2c(C)[nH]c3ccccc23)c2ccccc21, the Potency was active: 1.26 µM. In the case of CC(C)C[C@H](NC(=O)c1nc[nH]c1C(=O)N1CCNCC1)C(=O)OCc1ccccc1, the “activity change, negative = growth inhibition” value is reported as inactive: -13.3%. With O=C(OCC(=O)N1CCN(C(=O)c2ccco2)CC1)c1c(Cl)cccc1Cl the “activity change, negative = growth inhibition” value was inactive: -11.4%. In the case of COc1ccc2oc(C(=O)OCC(=O)N3CC(C)CC(C)C3)c(C)c2c1 (stereo not given), the Potency is reported as inconclusive [inhibitor, single point]. In the case of Clc1ccc(CSc2ccc(-c3cccnc3)nn2)cc1, the activity change, negative = growth inhibition is reported as inconclusive: -36.3% [inhibitor]. With Cc1ccccc1NC(=S)N1CCN(c2ccccc2C)CC1 the Potency was inconclusive [inhibitor, single point]. With COCCCNC(=O)C1CCCN(S(=O)(=O)c2ccc3c(c2)oc(=O)n3C)C1 (stereo not given) the “activity change, negative = growth inhibition” value was inactive: -1.75%. In the case of CCc1c(C)nc2ccc(Br)cc2c1SCCC#N, the Potency is reported as inconclusive [inhibitor, partial curve]. In the case of CCCCN(C1CCS(=O)(=O)C1)S(=O)(=O)c1ccc(C(C)C)cc1 (stereo not given), the Potency is reported as inconclusive [inhibitor, partial curve].
